From the supplement of paper PMC3724861 come the findings set out here.

Some of the results follow. Some results are limits rather than exact numbers.

The experiment concerns T1, Caupolican (Caup) homeodomain DNA-binding domain.
T1 sequence: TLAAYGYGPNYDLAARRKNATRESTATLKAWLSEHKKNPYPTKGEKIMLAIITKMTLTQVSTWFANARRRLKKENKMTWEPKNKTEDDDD
Kind of experiment: PBM E-score (8-mer, recovered from the published 9-mer minima) (E-score (dimensionless, -0.5 to 0.5)); Drosophila protein; higher = stronger relative binding preference, active = 0.31 or more. The method in brief: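 Caup's homeodomain DNA-binding domain (residues 214-303) was produced by in vitro transcription and translation and applied at 100 nM to custom-designed protein binding microarrays. Each value is an enrichment score giving relative binding preference for a short DNA word; higher means stronger. Published 9-mer scores were the minimum of their two constituent 8-mer scores, and the 8-mer values were recovered from those minima. A cutoff of 0.31 marks candidate binding sequences.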
Turning to CACCAGCC, the “PBM E-score” value is inactive: -0.11. The figure for CTTTGACA is inactive: 0.223; for CACAAGTC it is inactive: 0.0837; for GGCCTGGA it is inactive: -0.239. For the sequence ATGCTCGA, the “PBM E-score” value is inactive: 0.0884. The figure for ATGATAAT is ≥ 0.219; for CCGTCCCA it is inactive: -0.179; for AACCCGAA it is inactive: -0.0947.

Take TAGCACGA: the “PBM E-score” value was inactive: 0.0496.

For the sequence ACCTCTTG, the “PBM E-score” value is inactive: -0.0487. With TGCTACCA, the “PBM E-score” value is ≥ 0.0527.

CTACACTC: the “PBM E-score” value was inactive: 0.0931.

CCGCGTCA: the “PBM E-score” value is inactive: -0.126. Next, AGACCCGA: inactive: -0.108. The figure for AACCCTCT is inactive: -0.089. Next, AGCCTAGC: inactive: -0.195. As for TAGCGAGA, the “PBM E-score” value is inactive: 0.0191. Next, ATTTGCGG: inactive: -0.0153. Next, CCGATGCC: inactive: -0.172. Turning to CAATCCTG, the “PBM E-score” value was inactive: 0.0513. The figure for CACTCCGG is inactive: -0.0689. The figure for CGCCGGAC is inactive: -0.199; for ATGGCTGA it is inactive: 0.00468; for AATCGAAG it is inactive: 0.134. On to AGCTCGTC, for which the “PBM E-score” value is inactive: -0.134. Next, TTATGAAA: inactive: 0.0421. The figure for GCTGCAAA is inactive: 0.0079; for GAATTAGA it is inactive: -0.0102.

Consider ACACTTTG, for which the “PBM E-score” value was ≥ 0.17.

In the case of ACAACTTC, the “PBM E-score” value was inactive: 0.195. Next, CGGCCTCA: inactive: -0.2; CAGAGACA: inactive: 0.0246; CTCCCATC: inactive: -0.15.

Regarding GCCACGGA, the “PBM E-score” value was inactive: -0.18. Next, AACAACTT: inactive: 0.2; ACACCTCT: inactive: 0.111; ATTAGTAG: inactive: 0.212.

Take GACTATCC: the “PBM E-score” value is inactive: -0.0569. Next, CTCACCCA: inactive: -0.119; CCGGGTAC: inactive: -0.0624; CGGGCCCA: inactive: -0.239. As for AGGACCCC, the “PBM E-score” value is inactive: -0.212. Next, CCGATTCA: inactive: 2e-05. With GTGGGAAA, the “PBM E-score” value is inactive: -0.0925. The figure for CAACGACC is inactive: -0.0949; for CCGCAAAA it is inactive: -0.0913. The figure for ATTAGACC is inactive: -0.0254.

With AAAGCGGG, the “PBM E-score” value was inactive: -0.178. The figure for CTCATGTA is active: 0.377. Next, GCAACGAC: inactive: -0.0459; AATCGAAA: inactive: 0.0513; AGCAGATG: inactive: 0.0667.

Regarding CCATTTCA, the “PBM E-score” value is inactive: -0.127. For TATAGAGA, the “PBM E-score” value is inactive: 0.0379. The figure for CGCGACTC is inactive: -0.0643; for CGTGACAC it is inactive: 0.227; for ATTTGAAG it is inactive: -0.0234. The figure for GACCTACC is inactive: -0.0746; for ATACCAGC it is inactive: -0.0192; for AGGTTGAT it is inactive: 0.0309. Next, CGATTACG: inactive: 0.101. ATATCGAC: the “PBM E-score” value was inactive: 0.139. In the case of CGTATTCA, the “PBM E-score” value was inactive: 0.0989.

For AGTTTGTA, the “PBM E-score” value was inactive: 0.242. The figure for CGATCGGA is inactive: -0.0409; for GAGACCAC it is inactive: -0.0823.

With CAAGAGTA, the “PBM E-score” value is inactive: 0.103. The figure for CCGACTCA is inactive: -0.0951; for GCTCTCGA it is inactive: -0.104. As for ACATAGGA, the “PBM E-score” value was inactive: 0.22. The figure for ACTAGAGC is inactive: -0.0268; for CAGCCGCC it is inactive: -0.256; for AGAAGAAA it is inactive: -0.062.

As for AATATAGC, the “PBM E-score” value was inactive: -0.00463.

On to CGCGGGGC, for which the “PBM E-score” value is inactive: -0.234.

Regarding GCTAGCAA, the “PBM E-score” value is inactive: 0.00952. The figure for AATCGGGG is inactive: -0.185; for GAGTTCGA it is inactive: 0.049. Regarding ATATTACC, the “PBM E-score” value was inactive: 0.186.

Regarding TGCGCACA, the “PBM E-score” value was ≥ 0.0432.

On to AATTATCG, for which the “PBM E-score” value was inactive: 0.101. The figure for TACTAGTA is ≥ 0.285; for GAGGTCCC it is inactive: -0.236. The figure for ACTAACAT is inactive: 0.307. Take ACCAAACG: the “PBM E-score” value is inactive: -0.119. On to CTACTGTC, for which the “PBM E-score” value is inactive: -0.00882.

Take GAGTTTAC: the “PBM E-score” value was inactive: -0.00241. ACTCCAGT: the “PBM E-score” value was ≥ -0.0222. With ACTCTTCG, the “PBM E-score” value is inactive: 0.0397. The figure for GCCCTAAA is inactive: -0.236; for GCCCCTTA it is inactive: -0.237; for GCTAACTA it is inactive: 0.0176. The figure for AACGGCGT is inactive: -0.0513; for CGACTTAG it is inactive: -0.00603; for AGTACGAG it is inactive: 0.0724. The figure for CAAGCAGA is inactive: 0.0359; for ATAGCGCC it is inactive: -0.0914. For the sequence ATTAGCTA, the “PBM E-score” value was ≥ 0.129.

On to CAACCGGC, for which the “PBM E-score” value is inactive: -0.111. With ATTCGCCC, the “PBM E-score” value is inactive: -0.104. Regarding ACCCTGCG, the “PBM E-score” value is inactive: -0.172. In the case of AAGTGCCT, the “PBM E-score” value is inactive: -0.12. Regarding AGCACTAC, the “PBM E-score” value is inactive: 0.0109. In the case of ATGAGCTG, the “PBM E-score” value is inactive: -0.0339. The figure for ATGTGTAC is active: 0.348. Consider GGCATTTA, for which the “PBM E-score” value was inactive: -0.019. Regarding CCAGATAA, the “PBM E-score” value was inactive: 0.0647. Next, TGCCCAAA: inactive: -0.14; AACCTAAC: inactive: 0.00293; AAGGTGGG: inactive: -0.205.

As for CCTGGTGC, the “PBM E-score” value was inactive: -0.127. Regarding CCTATGGA, the “PBM E-score” value is inactive: 0.00188.
